Measured values: the supplement of paper PMC4604168 (melanoma cell lines)
Some of the results follow. Repeats are few or missing, and single values can be far off.

These molecules were tested on COLO800 (assay: cell count relative to DMSO control; melanoma cells; higher = more viable cells). Settings: library dose: standard library concentration; 72 h.
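Also: cells treated in 1,536-well plates, then fixed and DAPI-stained, with nuclei counted from automated high-throughput microscope images.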

SMILES | cell count [%]
O=C(O)c1ccc2c(c1)nc(Nc1cccc(Cl)c1)c1ccncc12 + COC(=O)c1sccc1S(=O)(=O)Nc1ccc(Nc2ccccc2)cc1OC [GSK0660] (first compound 2 µM, partner dose 5 µM) | 57.5
O=C(O)c1ccc2c(c1)nc(Nc1cccc(Cl)c1)c1ccncc12 + O=C(O)C(=O)Nc1sc2c(c1C(=O)O)CCNC2 [TCS401] (first compound 2 µM, partner dose 8.33333 µM) | 85.9
O=C(O)c1ccc2c(c1)nc(Nc1cccc(Cl)c1)c1ccncc12 + Oc1cc(-c2nc(-c3ccccc3)[nH]c2-c2ccncc2)ccc1Cl [L779450] (first compound 2 µM, partner dose 1 µM) | 116
O=C(Nc1ccccc1)c1cc([N+](=O)[O-])ccc1Cl + O=C(O)C(=O)Nc1sc2c(c1C(=O)O)CCNC2 [TCS401] (first compound 10 µM, partner dose 8.33333 µM) | 107
Cn1nnc2c(C(N)=O)ncn2c1=O [temozolomide] + O=C1NC(=O)/C(=C/c2ccc(-c3ccc(F)cc3O)o2)S1 [AS252424] (first compound 10 µM, partner dose 5 µM) | 51.6
O=C(Nc1ccccc1)c1cc([N+](=O)[O-])ccc1Cl + O=c1cc(-c2cccc3c2Sc2ccccc2S3)oc(N2CCOCC2)c1 [KU55933] (first compound 10 µM, partner dose 5 µM) | 55.4
Cn1nnc2c(C(N)=O)ncn2c1=O [temozolomide] + COC(=O)c1sccc1S(=O)(=O)Nc1ccc(Nc2ccccc2)cc1OC [GSK0660] (first compound 10 µM, partner dose 5 µM) | 105
O=C(Nc1cc(C(F)(F)F)cc(C(F)(F)F)c1)c1cc(Cl)ccc1O + c1cc(-c2cnn3cc(-c4ccc(OCCN5CCCCC5)cc4)cnc23)ccn1 [Dorsomorphin] (first compound 0.08 µM, partner dose 2 µM) | 83.1
O=C(O)[C@@H]1[O][Sb](=[O])([O][Sb]2(=[O])[O][C@H]([C@H](O)CO)[C@H](O)[C@H](C(=O)O)[O]2)[O][C@H]([C@H](O)CO)[C@@H]1O (some centres not stated) [stibogluconate] + O=C1NC(=O)/C(=C/c2ccc(-c3ccc(F)cc3O)o2)S1 [AS252424] (first compound 10 µM, partner dose 5 µM) | 72.7
O=C(O)[C@@H]1[O][Sb](=[O])([O][Sb]2(=[O])[O][C@H]([C@H](O)CO)[C@H](O)[C@H](C(=O)O)[O]2)[O][C@H]([C@H](O)CO)[C@@H]1O (some centres not stated) [stibogluconate] + CCCCCCCCCCCC1=C(O)C(=O)C=C(O)C1=O [Embelin] (first compound 10 µM, partner dose 6 µM) | 98.3
Cn1nnc2c(C(N)=O)ncn2c1=O [temozolomide] + N#Cc1c(O)c2c(-c3ccc(-c4ccccc4O)cc3)csc2[nH]c1=O [A769662] (first compound 10 µM, partner dose 10 µM) | 97.4
Cc1cc(N2CCOCC2)cc2[nH]c(-c3c(NC[C@@H](O)c4cccc(Cl)c4)cc[nH]c3=O)nc12 + Cc1cc([N+](=O)[O-])ccc1NS(=O)(=O)c1cc(Cl)ccc1Cl [FH535] (first compound 1 µM, partner dose 5 µM) | 19.7
O=C(Nc1cc(C(F)(F)F)cc(C(F)(F)F)c1)c1cc(Cl)ccc1O + COc1cc2ncnc(Nc3ccc(Oc4ccccc4)cc3)c2cc1OC [SrcI1] (first compound 0.08 µM, partner dose 10 µM) | 85

Each molecule was assayed on COLO829 in the same assay as above. Settings: library dose: standard library concentration; 72 h.

SMILES | cell count [%]
O=C(O)c1ccc2c(c1)nc(Nc1cccc(Cl)c1)c1ccncc12 + CC(C)CCN1c2nc(Nc3cc(F)c(O)c(F)c3)ncc2N(C)C(=O)C1C [BID1870] (first compound 2 µM, partner dose 1 µM) | 55.9
Cc1cc(N2CCOCC2)cc2[nH]c(-c3c(NC[C@@H](O)c4cccc(Cl)c4)cc[nH]c3=O)nc12 + Cn1cc(/C=C2\C(=O)Nc3cccnc32)c2ccccc21 [GW441756] (first compound 1 µM, partner dose 2 µM) | 129
O=C(Nc1ccccc1)c1cc([N+](=O)[O-])ccc1Cl + O=C1NC(=O)/C(=C/c2ccc(-c3ccc(F)cc3O)o2)S1 [AS252424] (first compound 10 µM, partner dose 5 µM) | 59.9
O=C(O)c1ccc2c(c1)nc(Nc1cccc(Cl)c1)c1ccncc12 + COc1ccc(COc2ccc(Cc3cnc(N)nc3N)cc2OC)cc1 [GW2580] (first compound 2 µM, partner dose 5 µM) | 37.8
O=C(O)[C@@H]1[O][Sb](=[O])([O][Sb]2(=[O])[O][C@H]([C@H](O)CO)[C@H](O)[C@H](C(=O)O)[O]2)[O][C@H]([C@H](O)CO)[C@@H]1O (some centres not stated) [stibogluconate] + Cn1cc(/C=C2\C(=O)Nc3cccnc32)c2ccccc21 [GW441756] (first compound 10 µM, partner dose 2 µM) | 90.1
O=C(O)[C@@H]1[O][Sb](=[O])([O][Sb]2(=[O])[O][C@H]([C@H](O)CO)[C@H](O)[C@H](C(=O)O)[O]2)[O][C@H]([C@H](O)CO)[C@@H]1O (some centres not stated) [stibogluconate] + Cc1cc([N+](=O)[O-])ccc1NS(=O)(=O)c1cc(Cl)ccc1Cl [FH535] (first compound 10 µM, partner dose 5 µM) | 77
O=C(Nc1cc(C(F)(F)F)cc(C(F)(F)F)c1)c1cc(Cl)ccc1O + O=C(Nc1ccccc1)c1cc([N+](=O)[O-])ccc1Cl [GW9662] (first compound 0.08 µM, partner dose 10 µM) | 81.4
Cc1cc(N2CCOCC2)cc2[nH]c(-c3c(NC[C@@H](O)c4cccc(Cl)c4)cc[nH]c3=O)nc12 + O=S(=O)(c1ccccc1)N(CC(F)(F)F)c1ccc(C(O)(C(F)(F)F)C(F)(F)F)cc1 [T0901317] (first compound 1 µM, partner dose 7 µM) | 118
O=C(Nc1cc(C(F)(F)F)cc(C(F)(F)F)c1)c1cc(Cl)ccc1O + O=C1NC(=O)/C(=C/c2ccc(-c3ccc(F)cc3O)o2)S1 [AS252424] (first compound 0.08 µM, partner dose 5 µM) | 102
O=C(O)c1ccc2c(c1)nc(Nc1cccc(Cl)c1)c1ccncc12 + CCN(CC)CCCCNc1ncc2cc(-c3cc(OC)cc(OC)c3)c(NC(=O)NC(C)(C)C)nc2n1 [PD173074] (first compound 2 µM, partner dose 0.5 µM) | 66.1
O=C(Nc1cc(C(F)(F)F)cc(C(F)(F)F)c1)c1cc(Cl)ccc1O + COC(=O)c1sccc1S(=O)(=O)Nc1ccc(Nc2ccccc2)cc1OC [GSK0660] (first compound 0.08 µM, partner dose 5 µM) | 94.2
O=C(O)c1ccc2c(c1)nc(Nc1cccc(Cl)c1)c1ccncc12 + COc1cc(N2CCC(N3CCN(C)CC3)CC2)ccc1Nc1ncc(Cl)c(Nc2ccccc2S(=O)(=O)C(C)C)n1 [NVP-TAE684] (first compound 2 µM, partner dose 0.4 µM) | 51.4
Cc1cc(N2CCOCC2)cc2[nH]c(-c3c(NC[C@@H](O)c4cccc(Cl)c4)cc[nH]c3=O)nc12 + O=C1NC(=O)/C(=C/c2ccc(-c3ccc(F)cc3O)o2)S1 [AS252424] (first compound 1 µM, partner dose 5 µM) | 130
O=C(O)[C@@H]1[O][Sb](=[O])([O][Sb]2(=[O])[O][C@H]([C@H](O)CO)[C@H](O)[C@H](C(=O)O)[O]2)[O][C@H]([C@H](O)CO)[C@@H]1O (some centres not stated) [stibogluconate] + COc1cc(N2CCC(N3CCN(C)CC3)CC2)ccc1Nc1ncc(Cl)c(Nc2ccccc2S(=O)(=O)C(C)C)n1 [NVP-TAE684] (first compound 10 µM, partner dose 0.4 µM) | 89.2
O=C(O)c1ccc2c(c1)nc(Nc1cccc(Cl)c1)c1ccncc12 + O=c1cc(-c2cccc3c2Sc2ccccc2S3)oc(N2CCOCC2)c1 [KU55933] (first compound 2 µM, partner dose 5 µM) | 63
O=C(Nc1ccccc1)c1cc([N+](=O)[O-])ccc1Cl + COc1ccc(COc2ccc(Cc3cnc(N)nc3N)cc2OC)cc1 [GW2580] (first compound 10 µM, partner dose 5 µM) | 74.2
O=C(O)[C@@H]1[O][Sb](=[O])([O][Sb]2(=[O])[O][C@H]([C@H](O)CO)[C@H](O)[C@H](C(=O)O)[O]2)[O][C@H]([C@H](O)CO)[C@@H]1O (some centres not stated) [stibogluconate] + O=c1cc(-c2cccc3c2Sc2ccccc2S3)oc(N2CCOCC2)c1 [KU55933] (first compound 10 µM, partner dose 5 µM) | 77.3
O=C(O)c1ccc2c(c1)nc(Nc1cccc(Cl)c1)c1ccncc12 + COc1ccc(-c2ccc3c(N4CCOCC4)nc(N4C[C@@H](C)O[C@@H](C)C4)nc3n2)cc1CO [KU0063794] (first compound 2 µM, partner dose 0.1 µM) | 55.8
O=C(Nc1ccccc1)c1cc([N+](=O)[O-])ccc1Cl + CCN(CC)CCCCNc1ncc2cc(-c3cc(OC)cc(OC)c3)c(NC(=O)NC(C)(C)C)nc2n1 [PD173074] (first compound 10 µM, partner dose 0.5 µM) | 66.2
